# In PubChem BioAssay AID485294 (National Center for Advancing Translational Sciences (NCATS), 2010):
# About 150 (0.041%) of roughly 370,000 compounds were called active. Inconclusive results, whose numbers are uncertain, are shown with a selection of clear calls. Calls come from the whole dose curve; as a rule, active = well fitted inhibition curve with a large enough effect; inconclusive = small, poorly fitted or top-dose-only effect; inactive = flat fitted curve, though single readings scatter. Potencies of inconclusive entries are left out as doubtful fits.
# Target: Beta-lactamase (Escherichia coli (strain K12)) (UniProt P00811)
# Test: qHTS Inhibitors of AmpC Beta-Lactamase (assay with detergent); note: nearly all actives have a fitted effect of over 25% in size;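 for activity change, negative = inhibition: 0% = no-compound wells and -100% = no-enzyme wells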
# Settings: AmpC hydrolysis of nitrocefin, absorbance 480 nm, 0.01% Triton; activity change, negative = inhibition: at 114 µM (top of the series)
# Procedure, shortened: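 AmpC (5.3 nM in the dispensed reagent) in 20 mM phosphate pH 7.0 with 0.01% (detergent screen) or 0.0001% Triton X-100 was preincubated with compounds for 15 min at room temperature. Nitrocefin was then added from an 800 uM solution, and hydrolysis was followed at 480 nm.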
# Potency is the fitted concentration of half-maximal effect; tags give direction and shape of the fitted curve.
# Sequence of UniProt P00811 (P00811 whole entry, looked up): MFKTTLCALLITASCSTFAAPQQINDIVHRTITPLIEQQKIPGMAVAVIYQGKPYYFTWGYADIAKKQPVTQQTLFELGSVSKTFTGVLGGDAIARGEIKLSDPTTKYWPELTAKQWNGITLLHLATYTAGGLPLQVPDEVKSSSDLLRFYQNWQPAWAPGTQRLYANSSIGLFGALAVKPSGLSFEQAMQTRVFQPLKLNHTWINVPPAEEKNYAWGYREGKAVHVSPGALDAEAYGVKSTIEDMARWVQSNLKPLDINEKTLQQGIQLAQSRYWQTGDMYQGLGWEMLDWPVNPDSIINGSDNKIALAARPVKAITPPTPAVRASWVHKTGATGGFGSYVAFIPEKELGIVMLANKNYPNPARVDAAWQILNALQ
Structure (SMILES),Potency,"activity change, negative = inhibition"
COc1ccnc(-n2cccc2C=O)c1C#N,"inconclusive [inhibitor, full curve, poor fit]",–
CC(OC(=O)C1CC1C)C(=O)Nc1ccc(Cl)cn1 (stereo unspecified),"inconclusive [inhibitor, full curve, poor fit]",–
CSCCCNC(=O)c1ccc(OC2CCN(CCc3ccccc3)CC2)cc1,–,inactive: 6.88%
CCN(CC)C(=O)CSc1nc2ccccc2c(=O)n1CC1CCCCC1,"inconclusive [inhibitor, partial curve, poor fit]",–
O=C(CC1SC(N2CCCCC2)=NC1=O)Nc1cccc(C(=O)Nc2ncccc2O)c1 (stereo unspecified),"inconclusive [inhibitor, full curve]",–
O=C(Nc1cccc(C(F)(F)F)c1)c1ccc(Cn2cc(Br)cn2)o1,"inconclusive [inhibitor, full curve]",–
COc1ccccc1N1CCN(C(=O)c2cn(Cc3ccccc3)nc2-c2cccnc2)CC1,"inconclusive [inhibitor, partial curve, poor fit]",–
CC(C)CC(CO)N1CCN(C(=O)c2ccc(Cl)cc2Cl)CCC1=O (stereo unspecified),"inconclusive [inhibitor, full curve, poor fit]",–
CN=C1SC(CC(=O)Nc2ccccc2F)C(=O)N1/N=C/c1ccc(O)c(OC)c1 (stereo unspecified),"inconclusive [inhibitor, partial curve]",–
COc1ccc(CN2CCC(=O)N([C@H](CO)Cc3ccccc3)CC2)cc1OC,"inconclusive [inhibitor, full curve, poor fit]",–
COc1ccccc1NC(=O)c1ccc(NS(=O)(=O)c2ccc(F)c(F)c2F)cc1,"inconclusive [inhibitor, full curve, poor fit]",–
COc1ccc(S(=O)(=O)N(C)c2ccc(C(=O)N3CCN(C)CC3)cc2)cc1,"inconclusive [inhibitor, full curve, poor fit]",–
CCOc1cccc(N2C(=O)/C(=C/c3ccco3)C(=O)NC2=S)c1,"inconclusive [inhibitor, partial curve, poor fit]",–
COc1ccc(OCCOCCOc2ccc(C)cc2[N+](=O)[O-])cc1,"inconclusive [inhibitor, single point]",–
O=C(c1ccco1)N1CCN(C(=O)c2sccc2-c2ccccc2)CC1,"inconclusive [inhibitor, partial curve]",–
Cc1ccc(S(=O)(=O)c2nc(-c3ccc(Cl)cc3)oc2N2CCCCCC2)cc1,–,inactive: -2.37%
O=C(N/N=C/c1ccc[nH]1)c1ccccc1OCc1ccccc1Cl,"inconclusive [inhibitor, partial curve, poor fit]",–
Fc1cccc(Cl)c1Cn1nnc2c(-n3ccnc3)ncnc21,"inconclusive [inhibitor, partial curve, poor fit]",–
Cc1ccc(Cn2ccc(NC(=O)c3cc(-c4ccc(Cl)c(Cl)c4)on3)n2)cc1,–,inactive: 21.8%
COCCc1nn2c(=O)cc(COC(=O)c3ccc(C(C)(C)C)cc3)nc2s1,–,inactive: -2.63%
O=c1c2cc(-c3ccccc3)sc2ncn1/N=C/c1ccco1,–,inactive: -7.82%
O=[N+]1C2=C(CCCC2)N([O-])C12CCCC2,–,inactive: -7.03%

Structure (SMILES),Potency,"activity change, negative = inhibition"
CCOC(=O)c1c(C2CC2)csc1NC(=O)COC(=O)c1cc(OC)c(OC)cc1[N+](=O)[O-],"inconclusive [inhibitor, full curve, poor fit]",–
Cc1nnc(SCC(=O)NCc2ccccc2F)c2nn(-c3ccc(Cl)cc3)c(C)c12,–,inactive: 7.11%
Cc1ccc(Nc2nc(N/N=C/c3c[nH]c4ccccc34)nc(N3CCOCC3)n2)cc1,"inconclusive [inhibitor, full curve]",–
CC(=O)c1ccc(NC(=O)CNCc2cccs2)cc1,–,inactive: -4.58%
Cc1cc(C)cc(NC(=O)c2snc3c(=O)[nH]cnc23)c1,"inconclusive [inhibitor, full curve, poor fit]",–
COc1ccc(CCC(=O)N2CCCc3ccccc32)cc1,–,inactive: -2.66%
COc1ccc(C(=O)NNC(=S)NC(=O)c2ccco2)cc1,"inconclusive [inhibitor, full curve, poor fit]",–
COCCOC(=O)C1=C(C)NC2=C(C(=O)CC(C)(C)C2)C1c1ccc(N(C)C)cc1 (stereo unspecified),"inconclusive [inhibitor, full curve]",–
CCCC(=O)Nc1ccc(C(=O)NNC(=O)c2ccco2)cc1,–,inactive: -5.02%
Nc1nonc1-c1nc2ccccc2n1CC(=O)N1CCN(c2ccc(F)cc2)CC1,"inconclusive [inhibitor, partial curve, poor fit]",–
COc1ccccc1CN(Cc1nc2ccccc2c(=O)[nH]1)C(=O)Nc1ccccc1C,"inconclusive [inhibitor, single point]",–
COc1cc(OC)cc(C(=O)n2cnnc2N)c1,"inconclusive [inhibitor, full curve, poor fit]",–
CCOC(=O)NC1(C(F)(F)F)NC(=O)N(Cc2ccco2)C1=O (stereo unspecified),"inconclusive [inhibitor, full curve, poor fit]",–
N#CCSc1nnc(C2CCCCC2)n1Cc1ccccc1,"inconclusive [inhibitor, partial curve, poor fit]",–
CC(C)c1ccc(/C=N/Nc2ccc(C(=O)O)cc2)cc1,–,inactive: 1.1%
CCN(CC)c1nc(Nc2ccccc2)nc(Oc2ccc(C(=O)OC)cc2)n1,–,inactive: 4.48%
O=c1c2sc3ccccc3c2n(Cc2ccccc2F)c(=O)n1CCc1ccccc1,–,inactive: -10.5%
CCN(CC)Cc1c(C(=O)N/N=C/c2ccccn2)nnn1-c1nonc1N,–,inactive: -7.97%
COC(=O)c1cc(S(=O)(=O)NC2CCCCC2)cn1C,"inconclusive [inhibitor, full curve, poor fit]",–
COc1ccc([N+](=O)[O-])cc1NC(=O)CSc1nc(C)cc(C)n1,–,inactive: -8.93%
CC(/C=N/NC(=O)Cc1cccs1)=C\c1ccco1,"inconclusive [inhibitor, full curve]",–
CCN(CC)S(=O)(=O)c1ccc2c(c1)NC(=O)C1CCCN21 (stereo unspecified),"inconclusive [inhibitor, single point]",–

Structure (SMILES),Potency,"activity change, negative = inhibition"
COc1ccc(NC(C)=O)cc1S(=O)(=O)NC(Cc1ccccc1)C(=O)NCc1ccccc1C (stereo unspecified),"inconclusive [inhibitor, full curve, poor fit]",–
COc1cc(OC)cc(C(=O)Nc2cccc(N3CCCC3)c2)c1,"inconclusive [inhibitor, full curve, poor fit]",–
Cc1ccc(C2CC(=O)c3cnc(N4CC(C)CC(C)C4)nc3C2)cc1 (stereo unspecified),"inconclusive [inhibitor, full curve, poor fit]",–
Cc1cc(NC(=O)c2cccc(Oc3ccccc3)c2)n[nH]1,–,inactive: -5.57%
O=C(CSc1cn(CCNC(=O)c2ccccc2)c2ccccc12)NCC1CCCO1 (stereo unspecified),"inconclusive [inhibitor, full curve]",–
Cc1cc(C(=O)N/N=C/c2cccc(OC(=O)c3ccco3)c2)n[nH]1,"inconclusive [inhibitor, partial curve, poor fit]",–
CC(/C=N/NC(=O)c1cccnc1)=C\c1ccco1,"inconclusive [inhibitor, full curve, poor fit]",–
Cc1nnc(SCC(=O)NCc2ccc(Cl)cc2)[nH]c1=O,"inconclusive [inhibitor, partial curve]",–
Cc1nn(-c2ncc(C(F)(F)F)cc2Cl)c(=O)n1-c1ccc(F)cc1,"inconclusive [inhibitor, full curve, poor fit]",–
CCN(CC(=O)Nc1ccc2c(c1)OCCO2)C(=O)c1ccc(C)c(S(=O)(=O)N2CCOCC2)c1,"inconclusive [inhibitor, full curve, poor fit]",–
O=C(Cc1cccc2ccccc12)NCCc1ccccc1,"inconclusive [inhibitor, full curve]",–
COc1ccc2nc(C(C)O)[nH]c2c1 (stereo unspecified),"inconclusive [inhibitor, single point]",–
COc1cc(NS(=O)(=O)c2ccc(NC(=S)NC(=O)c3sc4cc(F)ccc4c3Cl)cc2)nc(OC)n1,–,inactive: -3.77%
Fc1ccccc1CSc1nnc(-c2cnccn2)n1Cc1ccco1,"inconclusive [inhibitor, partial curve, poor fit]",–
CN(C)S(=O)(=O)c1cccc(NC(=O)c2cc(-c3cccs3)nc3ccccc23)c1,"inconclusive [inhibitor, full curve, poor fit]",–
COC(=O)c1c(C)[nH]c(-c2csc(N)n2)c1C,–,inactive: -1.91%
Cc1cc(OCC(=O)N2CCOCC2)ccc1NC(=O)C1CCCCC1,"inconclusive [inhibitor, partial curve, poor fit]",–
C=CCNCCOc1c(C)cc(C)cc1Cl,"inconclusive [inhibitor, partial curve]",–
CCN1CCCC1CNC(=O)CCc1nc(-c2ccc(C)cc2)no1 (stereo unspecified),"inconclusive [inhibitor, single point]",–
COc1ccccc1OCC(=O)Nc1ccc(Cl)cc1C(=O)c1ccccc1,"inconclusive [inhibitor, full curve]",–
CCCC[C@@H](CN[C@H](C)CNC)NCC1CCC(C(C)(C)C)CC1 (stereo partly specified),"inconclusive [inhibitor, full curve, poor fit]",–
C=Cc1ccc(Cn2c(=O)n(-c3cccc(C)c3)c(=O)c3c2c2cc(C)ccc2n3C)cc1,"inconclusive [inhibitor, partial curve]",–
